The results in this text go back to PubChem BioAssay (NCI).

Each structure is given as a SMILES string.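 All cell lines were grown in 96-well plates and treated with compound for 48 hours. GI50 marks 50% less growth. Definition used: TGI = concentration required for complete inhibition of growth.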

The assay has as its system NCI-H322M lung. As to the kind of experiment: DTP human tumour cell line panel, 48 h.

On to `Clc1cc(Cl)cc(N2N=C(c3cccc(Nc4ccncc4)c3)CC2c2ccc(Br)cc2)c1` (stereo not given), for which the GI50 is 1.53 µM and the TGI came out at 2.9 µM.

In turn, `O=[N+]([O-])C(=C/C1CCCCC1)/C(=C\C1CCCCC1)[N+](=O)[O-]` had a TGI of 30.2 µM. In other words, the double-digit micromolar range.

`c1ccc2c(Cc3c[nH]c4ccccc34)c[nH]c2c1` came in with a TGI of 30.6 µM.

As for `CCOC(=O)[C@@H](C)C[C@H](Cc1ccccc1)NC(=O)c1csc([C@@H](C[C@H](C(C)C)N(C)C(=O)[C@H](CCC(C)C)NC(=O)[C@H]2CCCCN2C)OC(C)=O)n1`, the GI50 is 0.0124 µM and the total growth inhibition concentration (TGI) was 11.4 µM.

For `CCCCC(=O)[O-].N.N.N.N.N.[Co+3].[O-][Cl+3]([O-])([O-])[O-]`, the GI50 is greater than 100 µM and the TGI was greater than 100 µM.

As to `CN1CCN(Cc2ccc(NC(=O)c3[nH]ncc3Nc3ncnc4c3CCC4)cc2)CC1`, the GI50 is 1.93 µM and the total growth inhibition concentration (TGI) amounted to 10.7 µM.

`O=C(CNC(=O)c1cccc2ccccc12)Nc1ccccc1Oc1ccccc1`: the GI50 is 0.632 µM and the TGI is greater than 10 µM.

The molecule `CC(C)(C)C(=O)C(c1ccc(-c2cscn2)cc1)c1ccc(-c2cscn2)cc1` showed a TGI greater than 100 µM.

Consider `COc1ccc(C=NC23CC4CC(CC(C4)C2)C3)cc1`, for which the TGI was greater than 100 µM.

As to `O=C(Nc1cc(Cl)ccc1O)c1cccc(NC2=C(Cl)C(=O)N(Cc3ccccc3)C2=O)c1`, the GI50 was greater than 100 µM and the TGI was greater than 100 µM.

As for `O=C(c1ccc(Cl)cc1)N(C(=S)N1CCN(c2ccccc2)CC1)c1ccccc1`, the TGI was greater than 100 µM.

`O=S(=O)(NC(c1ccccc1)(c1cc2ccccc2[nH]1)c1cc2ccccc2n1S(=O)(=O)c1ccccc1)c1ccccc1` (stereo not given) gave a TGI greater than 100 µM.

`N#Cc1nc(Cc2ccccc2)oc1N` yielded a TGI greater than 100 µM.

As for `Cc1ccc(NS(=O)(=O)c2cc(C)ccc2C)cc1`, the GI50 is 21.9 µM and the TGI is greater than 100 µM.

Molecule `CC1=CC[C@H](C)C(C)(C)C1/C=C/C(C)=C/CC[C@@]1(CO)[C@H](CCCO)/C(=C(/C)C=O)CC[C@]1(C)O` (stereo not given in full) displayed a TGI of 28.4 µM.

For `CCOc1cc2ncc(C#N)c(Nc3ccc(F)c(Cl)c3)c2cc1NC(=O)/C=C/CN(C)C`, the GI50 was 0.0206 µM and the TGI is greater than 10 µM.

The molecule `O=C(c1ccco1)N1CCN(C(=O)c2ccco2)C1=S` gave a TGI of 32.9 µM.

For the molecule `COc1cc2c(OC)c(c1)CCCC1=CC(=O)C=C(CCC2)C1=O`, the TGI is greater than 100 µM.

On to `O=C(O)c1ccc(NS(=O)(=O)c2cccc3cccnc23)cc1`, for which the GI50 is greater than 100 µM and the TGI is greater than 100 µM.

Take `Cc1[nH]n(-c2nc(O)c(C)c(=O)[nH]2)c(=O)c1CCO`: the TGI was greater than 100 µM.

As to `Cc1cccc(C)c1NC(=O)C(=O)CC(=O)CO`, the TGI was greater than 100 µM.

In turn, `CCOC(=O)c1c(NC(=O)c2ccccc2)sc2c1CCC2` gave a TGI greater than 100 µM.

Consider `COc1cccc(/C=C/C(=O)c2cc3c(N)c(C(=O)Nc4cccc(Cl)c4C)sc3nc2C)c1`, for which the GI50 is 1.65 µM and the concentration for total growth inhibition (TGI) was greater than 24.7 µM.

`Cc1cc2c(cc1Cl)Sc1nnc(C)n1S2(=O)=O` displayed a TGI of 55.2 µM.

In turn, `Cc1ccc(NNc2cc(=O)[nH]c(=O)[nH]2)cc1Cl` yielded a TGI greater than 100 µM.

Take `COc1ccc(C2c3cc4c(cc3OC(N3CCOCC3)C2C)OCO4)c(OC)c1` (stereo not given): the TGI was 58.8 µM.

`CC1C=C(NCC2(CO)CCC2)NC(N)=N1` (stereo not given) gave a TGI greater than 100 µM.

As to `O/N=C1\CC2(N3CCOCC3)CCC1(Cc1ccccc1)CC2`, the TGI was greater than 100 µM.

In the case of `CSCCCNC(=O)c1csc([C@@H](CSC)NC(=O)CCNC(=O)[C@@H](NC(=O)OCC(Br)(Br)Br)C(C)O)n1` (stereo not given in full), the TGI was greater than 100 µM.

On to `Cc1c(C(=O)CC(=O)C(=O)Nc2cccc(C(F)(F)F)c2)[n+](=O)c2ccccc2n1[O-]`, for which the TGI was determined as 8.11 µM.

The molecule `C(/C=N/NC1=NCCN1)=N\NC1=NCCN1` displayed a TGI greater than 100 µM.

In turn, `O=[N+]([O-])c1cccc2nc3ccccc3c(NCCNCCO)c12` yielded a TGI of 0.146 µM. This lies in the sub-micromolar range.

In turn, `Cn1c2c(c3ccccc31)CC(=O)N1CCCCC1C21OCCO1` (stereo not given) displayed a TGI greater than 100 µM.

On to `COc1ccc2nc(NC(=O)C(=O)CC(=O)c3ccc(Cl)cc3)sc2c1`, for which the TGI was greater than 100 µM.

`Cn1c2ccccc2n2c3ccccc3c(=S)c(C#N)c12` returned a total growth inhibition concentration (TGI) greater than 100 µM.
